Measured values taken from the RNAGym collection of RNA variant scans (doi:10.1093/nar/gkz1192).
The source gives no read counts; variants with many changes may rest on few reads.

B1: CPEB3 Ribozyme (parent)
chain: UAACAGGGGGCCACAGCAGAAGCGUUCACGUCGCAGCCCCUGUCAGAUUCUGGUGAAUCUGCGAAUUCUGCUGUAUAUCUC

Variants of: B1
Assay: self-cleavage, relative activity (ratio to wild type); higher = more cleavage; in vitro, sequencing
Outline: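 Barcoded CPEB3 ribozyme mutants, produced by rounds of error-prone PCR, self-cleaved while being transcribed with T7 RNA polymerase for 5 hours at 37°C and during a subsequent 15 min DNase I step before EDTA was added. Sequencing of template-switched cDNA on Illumina gave cleaved and total reads, and DNA sequencing assigned barcodes to variants. Each variant's relative activity is its cleaved/total read fraction divided by the unmutated ribozyme's fraction, averaged across three batches. A variant needed a minimum of 5 reads.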

Question: With A15G A18G U41A U60C U67C as the variant, how does the self-cleavage read?
Answer: 0.08

Question: For A15G A18G U41C U49A, which self-cleavage is on record?
Answer: 0.03

Question: With A15G A18G U48A as the variant, how does the self-cleavage read?
Answer: 0.08

Question: With A15G A18G U78C as the variant, how does the self-cleavage read?
Answer: 0.34

Question: With A15G A18G U80A as the variant, how does the self-cleavage read?
Answer: 0.33

Question: Which self-cleavage does the source give for A15G A18U A20G A56G U67C here?
Answer: 0.05

Question: For A15G A18U A28U U58C, which self-cleavage is on record?
Answer: 0.37

Question: For A15G A18U A35G U67C, which self-cleavage is on record?
Answer: 0.08

Question: Which self-cleavage does the source give for A15G A18U A47G here?
Answer: 0.37

Question: Which self-cleavage does the source give for A15G A18U C27A U48C U58G U66C here?
Answer: 0.04

Question: Which self-cleavage does the source give for A15G A18U U26C A56U U72C U74C here?
Answer: 0.15

Question: With A15G A18U U41C U51C A56U A64G as the variant, how does the self-cleavage read?
Answer: 0.08

Question: Which self-cleavage does the source give for A15G A18U U58A here?
Answer: 0.29

Question: With A15G A18U U72C G73U as the variant, how does the self-cleavage read?
Answer: 0.19

Question: Which self-cleavage does the source give for A15G A18U U76C here?
Answer: 0.16

Question: Which self-cleavage does the source give for A15G A20C C44U here?
Answer: 0.09

Question: Which self-cleavage does the source give for A15G A20G A28G A57G U72G here?
Answer: 0

Question: Which self-cleavage does the source give for A15G A20G G22A A35U U69A here?
Answer: 0.19

Question: With A15G A20G G22C U25C U51A U54C as the variant, how does the self-cleavage read?
Answer: 0.26

Question: Which self-cleavage does the source give for A15G A20G G52A here?
Answer: 0.42

Question: For A15G A20G U43C, which self-cleavage is on record?
Answer: 0.18

Question: With A15G A20G U67A U78A as the variant, how does the self-cleavage read?
Answer: 0.61

Question: For A15G A20G U69A, which self-cleavage is on record?
Answer: 0.35

Question: For A15G A20U C39U U49C A56U U76C, which self-cleavage is on record?
Answer: 0.05

Question: With A15G A20U U41A U48C as the variant, how does the self-cleavage read?
Answer: 0.13

Question: For A15G A20U U48C U51C, which self-cleavage is on record?
Answer: 0.14

Question: For A15G A20U U60A, which self-cleavage is on record?
Answer: 0.36

Question: Which self-cleavage does the source give for A15G A20U U69C U80C here?
Answer: 0.09

Question: Which self-cleavage does the source give for A15G A21C A28G A35G U41A here?
Answer: 0.39

Question: Which self-cleavage does the source give for A15G A21C A35G U54A U72A here?
Answer: 0.1

Question: Which self-cleavage does the source give for A15G A21G A35U here?
Answer: 0.31

Question: For A15G A21G A35U U51C A75U, which self-cleavage is on record?
Answer: 0.22

Question: For A15G A21G A45G C62U U72G U74A, which self-cleavage is on record?
Answer: 0.12

Question: Which self-cleavage does the source give for A15G A21G A45U U49C U69C here?
Answer: 0.05

Question: Which self-cleavage does the source give for A15G A21G A56U G61A A64G U72C U74A here?
Answer: 0.08

Question: With A15G A21G C40U as the variant, how does the self-cleavage read?
Answer: 0.36

Question: For A15G A21G G53C, which self-cleavage is on record?
Answer: 0.52

Question: For A15G A21G U26C, which self-cleavage is on record?
Answer: 0.4

Question: Which self-cleavage does the source give for A15G A21G U26C A28C U41C A56G U80C here?
Answer: 0

Question: With A15G A21G U26C U41C C59G A65G A75U as the variant, how does the self-cleavage read?
Answer: 0.06

Question: With A15G A21G U26C U72A U80A as the variant, how does the self-cleavage read?
Answer: 0.36

Question: For A15G A21G U41A U49A U54A U76A, which self-cleavage is on record?
Answer: 0.05

Question: For A15G A21G U41A U76C, which self-cleavage is on record?
Answer: 0.03

Question: With A15G A21G U51G U72C as the variant, how does the self-cleavage read?
Answer: 0.45

Question: With A15G A21G U54C A75U as the variant, how does the self-cleavage read?
Answer: 0.63

Question: With A15G A21G U69A U72C as the variant, how does the self-cleavage read?
Answer: 0.24

Question: Which self-cleavage does the source give for A15G A21G U72G A75G here?
Answer: 0.49

Question: For A15G A21U A64U, which self-cleavage is on record?
Answer: 0.11

Question: For A15G A21U A65C U69C U80C, which self-cleavage is on record?
Answer: 0.1

Question: With A15G A21U A65G as the variant, how does the self-cleavage read?
Answer: 0.14

Question: With A15G A21U G33A G42A U78C as the variant, how does the self-cleavage read?
Answer: 0.06

Question: With A15G A21U G33C C68U as the variant, how does the self-cleavage read?
Answer: 0.18

Question: With A15G A21U U26C C62G as the variant, how does the self-cleavage read?
Answer: 0.23

Question: For A15G A21U U43C A47G A56G C62G, which self-cleavage is on record?
Answer: 0.04

Question: With A15G A21U U58C as the variant, how does the self-cleavage read?
Answer: 0.23

Question: Which self-cleavage does the source give for A15G A28G A45C U66C C68U U78C here?
Answer: 0.17

Question: With A15G A28G A45G U49C A77U as the variant, how does the self-cleavage read?
Answer: 0.4

Question: For A15G A28G A45U, which self-cleavage is on record?
Answer: 0.28

Question: Which self-cleavage does the source give for A15G A28G C39U A75U here?
Answer: 0.4

Question: Which self-cleavage does the source give for A15G A28G U31C U69C U80C here?
Answer: 0.08

Question: Which self-cleavage does the source give for A15G A28G U49C A65G U72G here?
Answer: 0.15

Question: Which self-cleavage does the source give for A15G A28U A35U here?
Answer: 0.23

Question: Which self-cleavage does the source give for A15G A28U A56G C62U U80C here?
Answer: 0.21

Question: For A15G A28U A65G U69C, which self-cleavage is on record?
Answer: 0.14

Question: Which self-cleavage does the source give for A15G A28U G42C U48C G61A C79U U80A here?
Answer: 0.07

Question: With A15G A28U U74C as the variant, how does the self-cleavage read?
Answer: 0.56

Question: With A15G A35G A45G U72A as the variant, how does the self-cleavage read?
Answer: 0.28

Question: For A15G A35G A47U U69A, which self-cleavage is on record?
Answer: 0.08

Question: With A15G A35G C37U U49A as the variant, how does the self-cleavage read?
Answer: 0.41

Question: For A15G A35G U43C, which self-cleavage is on record?
Answer: 0.21

Question: For A15G A35G U43C A57G, which self-cleavage is on record?
Answer: 0.24

Question: Which self-cleavage does the source give for A15G A35G U43G U49C A57G here?
Answer: 0.54

Question: With A15G A35G U48C A56U A64U U69A U80G as the variant, how does the self-cleavage read?
Answer: 0.11

Question: With A15G A35G U51C as the variant, how does the self-cleavage read?
Answer: 0.58

Question: With A15G A35G U54G G61A U72C as the variant, how does the self-cleavage read?
Answer: 0.53

Question: With A15G A35G U69A U72C U78C as the variant, how does the self-cleavage read?
Answer: 0.92

Question: For A15G A35U A45G U60A, which self-cleavage is on record?
Answer: 0.31

Question: For A15G A35U C38A A45G, which self-cleavage is on record?
Answer: 0.06

Question: For A15G A35U C39U A57G U67C, which self-cleavage is on record?
Answer: 0.06

Question: Which self-cleavage does the source give for A15G A35U U54C C68A here?
Answer: 0.1

Question: Which self-cleavage does the source give for A15G A35U U54C U69C U72C U78C here?
Answer: 0.35

Question: With A15G A35U U74A as the variant, how does the self-cleavage read?
Answer: 0.87

Question: For A15G A35U U80C, which self-cleavage is on record?
Answer: 0.79

Question: With A15G A45C C62U as the variant, how does the self-cleavage read?
Answer: 0.14
